# Results as given in PMC4336329 (PLoS ONE, 2015).
# Screen size: about 310,000 compounds; about 2,200 (0.71%) showed an effect of 50% or more. Effects have a minus sign here. Some of the results follow.
# Target: human ether-à-go-go-related gene (hERG) potassium channel (human, UniProt Q12809)
# Assay: primary screen, population patch clamp on CHO cells stably expressing hERG
# human ether-à-go-go-related gene (hERG) potassium channel, sequence (Q12809 whole entry, looked up): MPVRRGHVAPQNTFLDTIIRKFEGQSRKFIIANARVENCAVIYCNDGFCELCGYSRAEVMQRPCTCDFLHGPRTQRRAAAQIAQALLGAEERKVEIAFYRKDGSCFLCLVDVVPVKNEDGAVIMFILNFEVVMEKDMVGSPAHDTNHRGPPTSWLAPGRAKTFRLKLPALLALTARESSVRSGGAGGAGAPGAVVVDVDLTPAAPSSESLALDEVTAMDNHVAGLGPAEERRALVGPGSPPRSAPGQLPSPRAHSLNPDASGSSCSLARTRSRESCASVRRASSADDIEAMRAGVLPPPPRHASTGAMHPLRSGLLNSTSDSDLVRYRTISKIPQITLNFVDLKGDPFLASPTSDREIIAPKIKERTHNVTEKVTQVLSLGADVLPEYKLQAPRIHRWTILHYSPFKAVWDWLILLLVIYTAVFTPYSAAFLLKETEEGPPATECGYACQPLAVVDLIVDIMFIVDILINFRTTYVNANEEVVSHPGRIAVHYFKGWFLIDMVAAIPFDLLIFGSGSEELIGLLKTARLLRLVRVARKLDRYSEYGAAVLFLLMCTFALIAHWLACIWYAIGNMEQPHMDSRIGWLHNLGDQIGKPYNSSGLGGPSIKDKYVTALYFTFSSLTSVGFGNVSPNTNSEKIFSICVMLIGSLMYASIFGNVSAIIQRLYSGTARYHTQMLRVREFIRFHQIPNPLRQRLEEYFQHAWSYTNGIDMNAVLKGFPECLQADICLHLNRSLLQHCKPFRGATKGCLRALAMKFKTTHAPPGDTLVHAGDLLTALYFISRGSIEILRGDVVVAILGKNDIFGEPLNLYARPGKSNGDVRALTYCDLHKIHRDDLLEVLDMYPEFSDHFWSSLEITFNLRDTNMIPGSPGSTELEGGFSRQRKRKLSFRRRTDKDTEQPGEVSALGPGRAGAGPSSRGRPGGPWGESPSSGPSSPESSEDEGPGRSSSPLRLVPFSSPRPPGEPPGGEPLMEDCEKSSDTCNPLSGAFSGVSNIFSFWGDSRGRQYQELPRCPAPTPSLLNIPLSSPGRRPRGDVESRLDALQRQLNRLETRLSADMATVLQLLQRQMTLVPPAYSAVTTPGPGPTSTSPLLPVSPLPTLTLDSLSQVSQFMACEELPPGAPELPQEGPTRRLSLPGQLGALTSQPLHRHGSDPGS
row,Structure (SMILES),"hERG current change (%, negative = inhibition) at 1uM"
1,Cc1ccc(OCCC(=O)OCC(=O)Nc2ccc(F)cc2)cc1,20.9%
2,Cc1cc(C)c2[nH]c(=O)c(C(c3nnnn3C(C)(C)C)N3CCN(C(=O)c4ccco4)CC3)cc2c1 (stereo not shown),-21.6%
3,COc1ccc(C2Nc3ccccc3C(=O)N2c2ccc(Cl)cc2)cc1Cn1cc([N+](=O)[O-])cn1 (stereo not shown),8.01%
4,CN(C)CCNC(=O)COc1cccc2c1OC(C)(C)C2,24.2%
5,CN(C(=O)COC(=O)CSc1ccc(C(N)=O)cc1[N+](=O)[O-])C1CCCCC1,11.7%
6,COc1ccc(Nc2nc(N)c([N+](=O)[O-])c(N3CCCC3)n2)cc1,2.85%
7,Cc1ccc(S(=O)c2ccc(NC(=O)C3CC3)cc2C#N)cc1 (stereo not shown),6.48%
8,CCOc1ccccc1N1CC(C(=O)NCCOc2ccccc2OC)CC1=O (stereo not shown),4.57%
9,Cc1ccc(C(=O)NCCCn2ccnc2)cc1C,6.3%
10,CCOCCn1c(CN2CCN(c3cccc(Cl)c3)CC2)nc2c1c(=O)n(C)c(=O)n2C,-10.5%
11,Cc1ccc(N(C)S(=O)(=O)c2ccc3[nH]cc(C(=O)NCCCN4CCOCC4)c(=O)c3c2)cc1C,12%
12,CC(C)n1c(=N)c(C(=O)NCCc2ccccc2)cc2c(=O)n3ccccc3nc21,-78.6%
13,O=C(CSc1nnc(Cn2c(=O)sc3ccccc32)n1-c1ccccc1)Nc1nccs1,8.79%
14,Oc1ccc(Br)cc1/C=N/n1c(-c2ccccc2)n[nH]c1=S,15%
15,COc1ccccc1N1CCN(C(=O)COc2ccc(Cl)cc2)CC1,-39.9%
16,O=c1ccc2c(-c3ccccc3S(=O)(=O)O)c3ccc(O)c(O)c3oc-2c1O,7.19%
17,CCOC(=O)C(C(=O)Nc1cccc(C)n1)C1CCCCC1 (stereo not shown),3.95%
18,CCC(=O)Nc1nnc(CSCc2ccc(F)cc2)s1,3.36%
19,COc1ccc(NC(=O)c2ccc(NC(=O)COC(=O)CC(NC(=O)c3ccccc3Cl)c3ccccc3)cc2)cc1 (stereo not shown),3.61%
20,O=c1c2ccccc2nc(/C=C/c2c[nH]c3ccccc23)n1-c1ccc([N+](=O)[O-])cc1,13.4%
21,O=C(CCc1nnc(COc2ccccc2)o1)NCCc1cccs1,9.03%
22,CS(=O)(=O)N(CC(=O)NCCSC1CCCCC1)c1ccccc1,17%
23,O=C(O)CCC(=O)N1CN2CN(C(=O)CCC(=O)O)CC([N+](=O)[O-])(C2)C1,11.7%
24,COc1ccc(NS(=O)(=O)c2cc(NC(=O)Cn3cnc4c3c(=O)n(C)c(=O)n4C)ccc2C)cc1,8.77%
25,COc1ccc(CN2CCNCC2)c(OC)c1OC,13.9%
26,COc1cccc(C2/C(=C(\O)c3ccc4c(c3)OCCO4)C(=O)C(=O)N2CCCn2ccnc2)c1 (stereo not shown),19.5%
27,CCCSc1nc(O)c(CC)c(=O)n1C(C)CC (stereo not shown),6.13%
28,O=[N+]([O-])c1cc(-c2cnc3ccccc3n2)ccc1Cl,8.3%

row,Structure (SMILES),"hERG current change (%, negative = inhibition) at 1uM"
1,Nc1c(-c2ccc(Cl)cc2)cnn1-c1cccc([N+](=O)[O-])c1,8.88%
2,O=C(NCc1ccco1)C(=O)NCC1OCCCN1S(=O)(=O)c1ccccc1 (stereo not shown),13.3%
3,CC1=C(C(=O)OCc2ccc3c(c2)OCO3)C(c2ccc(O)c([N+](=O)[O-])c2)NC(=O)N1 (stereo not shown),7.48%
4,O=C(Nc1ccccc1)C1CCN(C(=O)c2ccco2)CC1,16.2%
5,CCOc1cc(C2NC(=O)c3ccccc3O2)ccc1OC(C)C (stereo not shown),9.21%
6,Clc1ccc(CN2CCN(c3ncccn3)CC2)cc1,8.96%
7,CC1=NN(c2nc(-c3ccc(C)cc3)cs2)C(=O)C1N=Nc1cccc(O)c1 (stereo not shown),5.44%
8,COC(=O)c1ccc(OCCn2cnc3ccccc3c2=O)cc1,-7.14%
9,FC(F)(F)c1cnc(N2CCN(C(=S)NCc3ccccc3)CC2)c(Cl)c1,4.6%
10,C/C(=N/Nc1ccnc2cc(Cl)ccc12)c1ccc(O)cc1,7.08%
11,CCCc1nc2c(ccc3ccccc32)cc1CC,4.82%
12,Cc1ccc(NC(=O)CSc2nc(NS(=O)(=O)c3ccccc3)cc(=O)[nH]2)cc1,6.77%
13,FC(F)(F)c1cc(Nc2ccccc2)nc(-c2ccccn2)n1,10.8%
14,NC(=O)c1oc2ccccc2c1NC(=O)CS(=O)(=O)c1ccccc1,11.6%
15,CC(C)CNC(=O)C1Nc2ccccc2C2C=CCC12 (stereo not shown),1.88%
16,Cc1c(N2C(=O)CSC2=S)c(=O)n(-c2ccccc2)n1C,9.28%
17,CCn1c(=O)cc(SCC(=O)N2CCC(C)CC2)c2ccccc21,15.4%
18,O=C(NC1CCCCC1)C(=S)NCc1ccccc1,7.31%
19,CC(Oc1ccccc1)C(=O)Nc1ccc(S(=O)(=O)NCC2CCCO2)cc1 (stereo not shown),0.893%
20,CN(C)C(=O)c1ccc(NC(=O)c2cc(-n3cnnc3)ccc2Cl)cc1,4.04%
21,CC1CCCN(S(=O)(=O)c2ccc(NC(=O)Cn3nnc(-c4ccccc4F)n3)cc2)C1 (stereo not shown),7.34%
22,Clc1ccccc1Sc1ccc(-c2ccccn2)s1,9.33%
23,CCC(C)NC(=O)CCC(=O)OC1O[C@H]2OC3(C)CC[C@H]4[C@H](C)CCC(C1C)C24OO3 (stereo partly shown),5.59%
24,Cc1ccc(C(=O)N(CC(=O)NC2CCCC2)c2ccc(F)cc2)s1,-0.522%
25,O=C(CCS(=O)(=O)c1ccccc1)Nc1nc(-c2ccccn2)cs1,7.75%
26,CCSc1nnc2c3cc(CC)ccc3n(C)c2n1,13.9%
27,COc1ccc2cnn(-c3ccc(OC(F)(F)F)cc3)c(=O)c2c1OC,14.8%
